The supplement of paper PMC6206098
± gives the uncertainty stated by the source. The sequences are guide strands of siRNAs; only the seed at positions 2 to 7 varies.

Assays:
[1] = system: 3LL; test: cell viability relative to siNT1 control; higher = less toxic; conditions: concentration: 10 nM; 96 h; Mus musculus;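 further: Luminescence-based viability of cells reverse transfected in 384-well plates with lipid-complexed siRNAs built on a non-toxic 19mer backbone whose passenger strand carries 2′-O-methyl groups at positions 1 and 2, triplicates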
[2] = system: H460; test: cell viability relative to lipid-only control; HeyA8 human ovarian and H460 human lung cancer; M565 mouse liver and 3LL mouse lung cancer; siNT1 is a non-toxic control siRNA; higher = less toxic; conditions: concentration: 10 nM; 96 h; Homo sapiens
Experimental: (§1)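 Arrayed screen of 4096 siRNA duplexes, each carrying one of all possible 6mer seeds at guide-strand positions 2-7 in a fixed neutral 19mer scaffold (constant flanks: U at position 1, then ACAUGUAAACCA, plus a 3' AA overhang). The passenger strand is 2'-O-methylated at positions 1-2 so only the guide strand loads into RISC. Duplexes were reverse-transfected at 10 nM with RNAiMAX in triplicate in 384-well plates; viability was read by CellTiter-Glo ATP content 96 h after transfection. Values are % viability normalised to lipid-only wells (HeyA8, H460, M565) or to siNT1 (3LL).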

[3] = system: HeyA8; test: as above; conditions: concentration: 10 nM; 96 h; Homo sapiens
Experimental: as §1

[4] = system: M565; test: as above; conditions: concentration: 10 nM; 96 h; Mus musculus
Experimental: as §1
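Wherever cell viability relative to lipid-only control is given: reverse lipid transfection in 384-well plates, in triplicate, of duplexes on a non-toxic 19mer backbone with passenger strand 2′-O-methylated at positions 1 and 2, luminescence viability read-out.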

Row | Sequence | cell viability [1] [%] | cell viability [2] [%] | cell viability [3] [%] | cell viability [4] [%]
1 | UCUCGUGACAUGUAAACCAAA | 88.5 ± 13 | 59.4 ± 10 | 84.7 ± 7.4 | 70.8 ± 12
2 | UCCAUUCACAUGUAAACCAAA | 80.6 ± 13 | 66.6 ± 2.9 | 60.1 ± 2.4 | 47.8 ± 3.8
3 | UCACCAAACAUGUAAACCAAA | 91.4 ± 16 | 40 ± 2.2 | 90.1 ± 6.5 | 60.2 ± 4.7
4 | UCCGAGCACAUGUAAACCAAA | 51.1 ± 10 | 55.1 ± 4.4 | 34.2 ± 3.3 | 16.7 ± 2.3
5 | UGAUUUCACAUGUAAACCAAA | 12.2 ± 0.51 | 43.8 ± 3.8 | 28.2 ± 1.3 | 6.34 ± 3
6 | UUGAGUUACAUGUAAACCAAA | 95.7 ± 12 | 82.6 ± 16 | 86 ± 11 | 98.9 ± 12
7 | UGGUUCAACAUGUAAACCAAA | 82 ± 7.3 | 52.7 ± 2.4 | 28.5 ± 3 | 19.8 ± 2.8
8 | UACGUGCACAUGUAAACCAAA | 43.1 ± 8.6 | 48.1 ± 3.4 | 15.7 ± 1.2 | 6.3 ± 1.5
9 | UGGCAUAACAUGUAAACCAAA | 90.1 ± 3.5 | 49.7 ± 7.1 | 32.7 ± 3 | 42.8 ± 3.3
10 | UUUCCGCACAUGUAAACCAAA | 35.85 ± 0.29 | 55.2 ± 2.7 | 69.5 ± 6 | 41.5 ± 2.4
11 | UUGUGGUACAUGUAAACCAAA | 5.94 ± 1.6 | 56.6 ± 4.1 | 40.5 ± 5.5 | 20.1 ± 3.3
12 | UCCUGCAACAUGUAAACCAAA | 88.7 ± 17 | 68.5 ± 5.2 | 68.7 ± 7.8 | 81.3 ± 13
13 | UACUCCAACAUGUAAACCAAA | 81.6 ± 5.6 | 72.4 ± 8.1 | 60.7 ± 1.7 | 58.5 ± 3.5
14 | UUUACCGACAUGUAAACCAAA | 98.3 ± 14 | 97.7 ± 4.2 | 93.2 ± 4.3 | 96.5 ± 5.7
15 | UGUGCAAACAUGUAAACCAAA | 86.7 ± 4.7 | 75.1 ± 1.9 | 91.8 ± 23 | 66.2 ± 19
16 | UUGAUGUACAUGUAAACCAAA | 74.6 ± 7.5 | 91.4 ± 3.1 | 41.43 ± 0.3 | 30.9 ± 9
17 | UAGCCCUACAUGUAAACCAAA | 18.3 ± 2.2 | 46.8 ± 4.2 | 48.5 ± 3.9 | 17.9 ± 1.9
18 | UACCCUCACAUGUAAACCAAA | 59.7 ± 7.2 | 34.9 ± 1.3 | 48.9 ± 5.1 | 37.7 ± 5.7
19 | UCAUCCCACAUGUAAACCAAA | 12.4 ± 1.3 | 21.6 ± 2.5 | 33.1 ± 1.9 | 13 ± 1.9

Row | Sequence | cell viability [1] [%] | cell viability [2] [%] | cell viability [3] [%] | cell viability [4] [%]
20 | UGAGGUGACAUGUAAACCAAA | 90.4 ± 18 | 56.4 ± 5 | 63 ± 5.5 | 5.94 ± 0.58
21 | UCAACUGACAUGUAAACCAAA | 94.6 ± 14 | 67.2 ± 12 | 81 ± 1.9 | 67.2 ± 3.5
22 | UUCUGCUACAUGUAAACCAAA | 6.11 ± 0.95 | 72.2 ± 14 | 63.1 ± 5.7 | 50.4 ± 4.4
23 | UCCUCUGACAUGUAAACCAAA | 88.9 ± 14 | 63.3 ± 11 | 89.8 ± 4.8 | 64.1 ± 10
24 | UUCGCGCACAUGUAAACCAAA | 47.5 ± 4 | 77.4 ± 8.7 | 63.4 ± 12 | 70.6 ± 4.7
25 | UACCGGAACAUGUAAACCAAA | 73 ± 11 | 64.8 ± 12 | 73.6 ± 5.5 | 43.5 ± 6.4
26 | UAUUUCUACAUGUAAACCAAA | 22.7 ± 2.9 | 75.1 ± 3.9 | 52.1 ± 3 | 39.5 ± 3.8
27 | UCUAUAAACAUGUAAACCAAA | 99.4 ± 17 | 64.4 ± 5.9 | 89.2 ± 9.7 | 61.2 ± 12
28 | UCUGUGAACAUGUAAACCAAA | 103 ± 17 | 41.8 ± 4.2 | 73.3 ± 10 | 42.8 ± 9.7
29 | UCGGUUAACAUGUAAACCAAA | 93.7 ± 22 | 66 ± 3.4 | 92.2 ± 5.7 | 73.1 ± 4.6
30 | UCGGUUCACAUGUAAACCAAA | 40 ± 8.3 | 44.5 ± 2.7 | 30.7 ± 2.2 | 25.3 ± 5
31 | UGAGGCGACAUGUAAACCAAA | 26.1 ± 5 | 64.9 ± 14 | 45.8 ± 3.5 | 5.03 ± 1.1
32 | UGUAGACACAUGUAAACCAAA | 60.4 ± 16 | 50.5 ± 6.9 | 18.4 ± 3 | 23 ± 7.2
33 | UACUCUCACAUGUAAACCAAA | 51.5 ± 13 | 34.8 ± 1.5 | 51.6 ± 1.4 | 40 ± 1.9
34 | UGCGACAACAUGUAAACCAAA | 96.3 ± 10 | 73.1 ± 9.3 | 84.4 ± 3.4 | 81.6 ± 2.2
35 | UUUUGCAACAUGUAAACCAAA | 100 ± 5.4 | 65.7 ± 10 | 92.8 ± 9.3 | 92.8 ± 8.2
36 | UACUAACACAUGUAAACCAAA | 86.9 ± 7.4 | 63.5 ± 6.8 | 62.7 ± 3 | 55.5 ± 11
37 | UAAGCUUACAUGUAAACCAAA | 80 ± 10 | 100 ± 26 | 81 ± 12 | 62.6 ± 10
38 | UGACGGGACAUGUAAACCAAA | 23.5 ± 2.8 | 37.2 ± 1.9 | 46.7 ± 2.2 | 15.2 ± 1.4

Row | Sequence | cell viability [1] [%] | cell viability [2] [%] | cell viability [3] [%] | cell viability [4] [%]
39 | UUCCUUAACAUGUAAACCAAA | 106 ± 27 | 79.9 ± 12 | 91.4 ± 12 | 94.7 ± 13
40 | UCAGUUGACAUGUAAACCAAA | 93.6 ± 11 | 52.8 ± 6.8 | 84.5 ± 12 | 48 ± 4.3
41 | UAGGCCGACAUGUAAACCAAA | 74.2 ± 1.9 | 53.5 ± 7.4 | 53 ± 6.7 | 7.61 ± 2.8
42 | UUAUUGGACAUGUAAACCAAA | 21.4 ± 1.4 | 66.3 ± 12 | 72.2 ± 4 | 61.9 ± 9.7
43 | UCUCCCAACAUGUAAACCAAA | 94.5 ± 11 | 65.3 ± 3.4 | 89 ± 9.2 | 57.8 ± 11
44 | UGGUCUAACAUGUAAACCAAA | 89.9 ± 10 | 55 ± 6.6 | 77.1 ± 12 | 88.5 ± 10
45 | UGGCGAAACAUGUAAACCAAA | 80.1 ± 6.9 | 34.4 ± 13 | 38.3 ± 4.2 | 41.9 ± 6.2
46 | UUAGACUACAUGUAAACCAAA | 91.1 ± 7.9 | 85.6 ± 16 | 99 ± 5.8 | 91.4 ± 16
47 | UGAGCUUACAUGUAAACCAAA | 28.5 ± 4.5 | 57.9 ± 14 | 69.6 ± 6.4 | 13.4 ± 3.4
48 | UAGGCACACAUGUAAACCAAA | 30.6 ± 2.9 | 42.7 ± 1.3 | 20.6 ± 3.3 | 5.67 ± 0.3
49 | UUGGUCCACAUGUAAACCAAA | 62.1 ± 3.1 | 60.1 ± 1.4 | 72.8 ± 5.4 | 41.4 ± 13
50 | UAAGCGUACAUGUAAACCAAA | 74.8 ± 3.2 | 91.1 ± 23 | 84.2 ± 9.3 | 74.1 ± 11
51 | UAACGGUACAUGUAAACCAAA | 75.6 ± 11 | 64.2 ± 1.5 | 53.8 ± 9.3 | 69 ± 4
52 | UCAUCCGACAUGUAAACCAAA | 80.1 ± 16 | 34.9 ± 1.8 | 47 ± 2.2 | 51.5 ± 2.2
53 | UUGACUCACAUGUAAACCAAA | 62.8 ± 1.1 | 63.1 ± 16 | 71 ± 2.8 | 81.8 ± 5.2
54 | UCCCCUUACAUGUAAACCAAA | 111 ± 23 | 87.9 ± 9.6 | 80.4 ± 7.5 | 80.4 ± 14
55 | UAGGGCCACAUGUAAACCAAA | 31.8 ± 4.2 | 28.1 ± 3 | 3.62 ± 0.12 | 2.41 ± 0.67
56 | UUAUCACACAUGUAAACCAAA | 61.8 ± 10 | 58.8 ± 4.1 | 79.5 ± 4.9 | 108 ± 16
57 | UUAUGGGACAUGUAAACCAAA | 51.3 ± 9.9 | 22.9 ± 2.6 | 19.4 ± 2.4 | 49.2 ± 7.1
